# According to publication PMC4336329 (PLoS ONE, 2015):
# The campaign covered roughly 310,000 compounds. About 2,200 (0.71%) showed an effect of 50% or more. Effects have a minus sign here. This is one part of the list.
# Target: human ether-à-go-go-related gene (hERG) potassium channel (human, UniProt Q12809)
# Experiment: primary screen, population patch clamp on CHO cells stably expressing hERG
# Chain of human ether-à-go-go-related gene (hERG) potassium channel (Q12809 whole entry, looked up): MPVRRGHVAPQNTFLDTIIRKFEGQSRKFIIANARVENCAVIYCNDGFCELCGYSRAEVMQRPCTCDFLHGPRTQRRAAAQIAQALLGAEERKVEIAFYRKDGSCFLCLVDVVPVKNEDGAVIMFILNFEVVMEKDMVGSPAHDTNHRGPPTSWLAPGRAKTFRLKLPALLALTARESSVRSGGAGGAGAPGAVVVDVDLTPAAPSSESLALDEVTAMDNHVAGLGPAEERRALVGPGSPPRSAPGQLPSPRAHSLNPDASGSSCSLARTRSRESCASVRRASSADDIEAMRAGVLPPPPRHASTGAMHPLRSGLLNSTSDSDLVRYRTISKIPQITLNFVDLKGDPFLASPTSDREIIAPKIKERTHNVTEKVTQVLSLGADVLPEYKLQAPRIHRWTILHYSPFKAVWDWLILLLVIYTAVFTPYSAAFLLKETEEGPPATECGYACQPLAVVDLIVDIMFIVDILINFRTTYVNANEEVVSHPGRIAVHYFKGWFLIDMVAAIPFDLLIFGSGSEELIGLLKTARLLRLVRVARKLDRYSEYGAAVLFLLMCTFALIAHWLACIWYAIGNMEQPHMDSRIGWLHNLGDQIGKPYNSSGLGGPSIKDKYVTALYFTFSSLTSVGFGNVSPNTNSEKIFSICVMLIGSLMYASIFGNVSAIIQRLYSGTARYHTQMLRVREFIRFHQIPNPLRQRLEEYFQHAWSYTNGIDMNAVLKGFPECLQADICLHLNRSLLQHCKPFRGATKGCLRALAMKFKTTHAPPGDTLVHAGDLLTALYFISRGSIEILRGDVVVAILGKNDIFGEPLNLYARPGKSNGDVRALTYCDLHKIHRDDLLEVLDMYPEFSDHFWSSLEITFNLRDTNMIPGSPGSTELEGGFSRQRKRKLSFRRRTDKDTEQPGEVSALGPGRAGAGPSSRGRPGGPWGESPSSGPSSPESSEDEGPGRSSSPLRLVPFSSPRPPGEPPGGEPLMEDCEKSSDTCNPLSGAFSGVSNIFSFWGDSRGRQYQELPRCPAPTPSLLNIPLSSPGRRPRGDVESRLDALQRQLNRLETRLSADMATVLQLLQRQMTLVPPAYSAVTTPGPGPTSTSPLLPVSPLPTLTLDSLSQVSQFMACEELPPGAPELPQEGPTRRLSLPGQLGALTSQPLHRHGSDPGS
row,Structure (SMILES),"hERG current change (%, negative = inhibition) at 1uM [%]"
1,Cc1ccc(C(C)(C)C)c(SCC(=O)Nc2nnc(C)s2)c1,5.63
2,COC(=O)c1ccc(CSc2nnc(C)s2)cc1,10.7
3,Cc1cc(C(=O)NN=C(Cc2ccccc2)Cc2ccccc2)c(C)o1,4.29
4,COC(=O)C1=C(c2ccc(F)cc2F)C[C@@H]2CC[C@H]1N2C(=O)N1CCOCC1,12.6
5,COc1ccccc1OCCCCn1ncc2ccc(OC)c(OC)c2c1=O,10.2
6,O=C(CN1C(=O)CN=C(c2ccccc2Cl)c2cc(Cl)ccc21)NCc1ccco1,11.8
7,COc1ccc(Cn2c(O)c(/C=N/NC(=O)c3ccccc3)c(=O)[nH]c2=O)cc1,-7.09
8,CC(C)C(O)(C(=O)NNc1ccccc1)C(C)C,7.85
9,CC1=C(C(=O)NCc2ccccn2)C2(CCC(C)CC2)OC1=O (stereo not drawn),-1.16
10,COc1ccc(NC(=O)CSCC(=O)Nc2ccc(S(=O)(=O)N3CCCC3)cc2)cc1,-1.02
11,Cc1ccc(C(=O)CSc2nc3cc(S(=O)(=O)N4CCOCC4)ccc3o2)cc1,11.2
12,O=C(Cn1nc(C(=O)O)c2ccccc2c1=O)Nc1ccc2c(c1)C(=O)c1ccccc1C2=O,6.96
13,O=C1NCCO1,-4.27
14,COc1ccc(C2C(C#N)=C(N)Oc3cc(O)ccc32)cc1C (stereo not drawn),-1.73
15,Cc1ccc(C(=O)C2Oc3ccccc3C3CC(c4ccc(C)cc4)=NN23)cc1 (stereo not drawn),11.1
16,O=C(c1cnc2n(c1=O)CCS2)N1CCCc2ccccc21,3.16
17,CC(C)[C@H](NC(=O)OC(C)(C)C)c1nnc(SCc2cccc(F)c2)o1,-4.82
18,COC(=O)CN(c1nc(C)c(Br)c(OC)n1)S(=O)(=O)c1ccc(C)cc1,5.18
19,O=C(O)c1ccccc1C(=O)Nc1cc(C(F)(F)F)ccc1N1CCCC1,-4.27
20,Cc1ccccc1N(CC(=O)NC1CCCC1)C(=O)C1(C)CC(=O)N=C2C=CC=CN21 (stereo not drawn),16.9
21,COc1cc(C(=O)Nc2c(C)cc(C)cc2C)c([N+](=O)[O-])cc1OC,11
22,Nc1cc(C(=O)O)c(N)c2c1C(=O)c1ccccc1C2=O,12.8
23,Cc1cc(=O)oc2cc(OCC(=O)N3CCC(C(N)=O)CC3)ccc12,9.4
24,COCCNC(=S)Nc1ccc(N2CCOCC2)c(S(=O)(=O)Nc2ccccc2OC)c1,3.6
